# In the supplement of paper PMC10338343:
# ± gives the standard deviation. Only a part is listed here, and it is no random draw.
# Test system: MIWI (PIWIL1) piRISC loaded with piRNA #1 (30 nt)
# Test: pre-steady-state target cleavage rate (min^-1); MIWI and MILI are mouse PIWI proteins and EfPiwi is from a freshwater sponge; tags in brackets are library labels; higher = faster piRNA-guided slicing of the target
# Conditions: guide: piRNA #1 5'p-UGAGGUAGUAGGUUGUAUAGUAUCCAGAGG; auxiliary factor: 500 nM mouse GTSF1
# Procedure, shortened: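 Cleave-'n-Seq: a transcribed, DNA-blocked target RNA library (0.1 nM) was mixed with 1 nM active affinity-purified piRISC carrying one synthetic guide, with or without 500 nM GTSF1 partner protein, in HEPES–potassium acetate buffer at 33 °C for 0–8 or 0–960 min. Uncleaved targets were sequenced and normalised to depth and to weakly complementary targets. Three trials were pooled, and k3 was capped at 0.0001 min^-1. The pre-steady-state cleavage rate came from a burst-and-steady-state fit.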
row,Sequence,pre-steady-state target cleavage rate
1,CCUCUGGAUUCUAUACAACCUACUACCUCA,1.63 ± 0.095
2,GGAGACCUAACUUUACAUCCUACUACCUCA,0.138 ± 0.052
3,GGACUGGAUCUAUACAACCUACUACCUCA,1.69 ± 0.12
4,CCUCUGGAUACUAUACAACCUAGUACCUGA,0.035 ± 0.012
5,GGAGUGGAUACUAUACAACCUAUCUACCUCA,0.267 ± 0.024
6,CCUCUGGAUACUAAACAAGCUACUACCUCA,1.4 ± 0.077
7,GGUCUGGAUACGAUACAACCUACUACCUCA,1.79 ± 0.11
8,GGAGACCUAACUAUACAAACCUACUACCUCA,< 0.0001
9,CCUCUGGAAUCUAUACAACCUACUACCUCA,1.78 ± 0.1
10,GGAGACCUAUCUAUACAACCUACUCACCUCA,0.537 ± 0.059
11,GGACAGGAUACUAUACAACCUACUACCACA,0.722 ± 0.062
12,GGAGACCUUACUAUCACAACCUACUACCUCA,0.645 ± 0.086
13,GCUCAGGAUACUAUACAACCUACUACCUGA,0.681 ± 0.042
14,GGAGACCAUACUAUACAACCUACUACACUCA,1.08 ± 0.083
15,GGUCUGGAUACUAUACAACCUAGAUGGAGA [g9:g28:cont:t1A],< 0.0001
16,GGUCUGGAUGACUAUACAACCUACUACCUCA,1.16 ± 0.099
17,GGAGACCUUAGUAUACAACCUACUACGUCA,0.162 ± 0.021
18,GGAGACGAUACUAUGCAACCUACUACCUCA,1.68 ± 0.096
19,GGAGUGGAAACUAUACAACGUACUACCUCA,0.673 ± 0.037
20,GGAGUGGAUUCUAUACAACCUACUUCCUCA,0.0356 ± 0.0079

row,Sequence,pre-steady-state target cleavage rate
1,GGUCUGGAUACAUAACAACCUACUACCUCA,0.696 ± 0.1
2,GGAGACCUUACUAUACAACCUUCUUCCUCA,0.124 ± 0.019
3,GCUCUGGAUACUAUACAAGCUACUACCACA,1.45 ± 0.065
4,GGAGACCAUACUUUACAAGCUACUACCUCA,0.724 ± 0.05
5,GGAGACCAUACUAUACAACCUACUACCACA,1.68 ± 0.15
6,GGAGACCUAUGAUUACAACCUAGAUGGAGA [g9:g17:cont:t1A],< 0.0001
7,GCUCUGGUACUAUACAACCUACUACCUCA,1.67 ± 0.09
8,GGAGACGAUACUAUACAACCUGCUACCUCA,0.884 ± 0.046
9,GGAGAGCAUACUAUACAACCUACUACCUCA,1.78 ± 0.11
10,GGUCUGGAUACUAUACAUCCUUCUACCUCA,0.287 ± 0.02
11,GGAGUGGAUACUAUACAUCCUAGUACCUCA,0.348 ± 0.049
12,GGAGACCUUUCUAUACAACCUACUACCUCA,0.994 ± 0.083
13,GGAGUGGAUACUAUACAACCUACUACCUUCA,0.943 ± 0.059
14,CCACUGGAUACUAUACUACCUACUACCUCA,1.88 ± 0.13
15,GGAGACCAUACUUUACAACCUACAACCUCA,0.548 ± 0.065
16,GGAGACCAUACUAAUACAACCUACUACCUCA,0.978 ± 0.08
17,GGUCAGGAUACUAAACAACCUACUACCUCA,1.74 ± 0.096
18,GGAGACCUUACUAUUGAACCUACUACCUCA,0.116 ± 0.017
19,GGAGACCUAUCAAUACAUCCUACUACCUCA,0.0166 ± 0.0069
20,GGACUGGGUACUAUACAACCUACUACCUCA,1.65 ± 0.13
